The list shows a part of the results. At the low end of the ranking the order means little.
Each sequence was assayed against SIX1 homeodomain (reference allele) (UniProt Q15475) (assay: universal protein binding microarray). Settings: Universal all-10-mer PBM (8x60K, AMADID 030236), 300 nM GST-tagged protein, Alexa Fluor 488 anti-GST; buffer, salt, pH and temperature not stated; high values mean tight binding; most listed sequences are background and not binding sites; double strand, one strand shown.
For AGTTGTTA, the binding signal was -0.183 E-score.
In the case of ATTTACTA, the binding signal is reported as -0.0211 E-score.
In the case of AATACAGT, the binding signal is reported as -0.0384 E-score.
Sequence AGAACTTA has a binding signal of -0.00409 E-score.
Sequence CTCGGACC has a binding signal of -0.0627 E-score.
GCTCAGCA was tested, and the binding signal was -0.163 E-score.
AGAATATC showed a binding signal of 0.283 E-score.
For AATTTTAT, the binding signal was -0.0921 E-score.
ATGACCCG showed a binding signal of 0.119 E-score.
GCGGCCCA was tested, and the binding signal was -0.207 E-score.
Sequence ACTCTGTC has a binding signal of -0.104 E-score.
Work on AATGCACA yielded a binding signal of 0.00443 E-score.
Work on TCCTTAAA yielded a binding signal of -0.0982 E-score.
For TGCAGACA, the binding signal was -0.105 E-score.
In the case of AGCGTAGA, the binding signal is reported as -0.063 E-score.
ATGTGGGA showed a binding signal of 0.0217 E-score.
AGTACGAA gave a binding signal of -0.0528 E-score.
For AACCATAA, the binding signal was -0.125 E-score.
CCCCCGTC was tested, and the binding signal was -0.0781 E-score.
CCGTAGCC gave a binding signal of -0.157 E-score.
CTAAATAG was tested, and the binding signal was -0.0261 E-score.
In the case of ATCTAGCG, the binding signal is reported as -0.00709 E-score.
GTGCGATA was tested, and the binding signal was 0.36 E-score.
With CCTACGGA the binding signal was 0.0576 E-score.
In the case of CTCGGTTA, the binding signal is reported as 0.0335 E-score.
In the case of AAGTTCCC, the binding signal is reported as -0.291 E-score.
For GCTATAAA, the binding signal was -0.0708 E-score.
Work on CAACAGTC yielded a binding signal of -0.168 E-score.
With CCTAAGTC the binding signal was -0.173 E-score.
Work on ACCAAGAT yielded a binding signal of 0.145 E-score.
GGCATTCA gave a binding signal of -0.067 E-score.
For CAAATCCC, the binding signal was 0.0211 E-score.
In the case of CAGTTCCA, the binding signal is reported as -0.0691 E-score.
Work on TAGAGATA yielded a binding signal of 0.268 E-score.
CCACTTGC showed a binding signal of 0.00498 E-score.
Work on AAAATTAT yielded a binding signal of -0.0602 E-score.
Sequence AAGATAAA has a binding signal of -0.0649 E-score.
In the case of AGGCTCCA, the binding signal is reported as -0.155 E-score.
AATAAAGG was tested, and the binding signal was -0.171 E-score.
In the case of GGTTGTGA, the binding signal is reported as -0.116 E-score.
CTAATTCA gave a binding signal of -0.201 E-score.
CCTGCGAG was tested, and the binding signal was 0.0434 E-score.
Work on GAGGCCCC yielded a binding signal of -0.29 E-score.
With CTATTAAC the binding signal was -0.00142 E-score.
In the case of ACCTGGCG, the binding signal is reported as -0.0637 E-score.
Work on AACCAGAC yielded a binding signal of -0.217 E-score.
For CACCAGGA, the binding signal was 0.0222 E-score.
Work on ACTACTAC yielded a binding signal of -0.112 E-score.
GTACTGGA showed a binding signal of 0.0566 E-score.
Work on AATGCGAT yielded a binding signal of 0.123 E-score.
In the case of AATGTGCG, the binding signal is reported as 0.129 E-score.
Work on CTTCCTTC yielded a binding signal of -0.219 E-score.
AGCCACGA was tested, and the binding signal was -0.0187 E-score.
TTAGGCAA was tested, and the binding signal was -0.231 E-score.
TAACTTAA showed a binding signal of 0.0397 E-score.
CAGACTGG gave a binding signal of -0.122 E-score.
AAACCATA gave a binding signal of 0.103 E-score.
GCTCCCCC was tested, and the binding signal was -0.334 E-score.
For CATACTCC, the binding signal was 0.136 E-score.
CTCGGGAC was tested, and the binding signal was -0.271 E-score.
In the case of AAGTACAA, the binding signal is reported as -0.218 E-score.
CATGTCCA showed a binding signal of 0.0429 E-score.
Work on AATTCCAA yielded a binding signal of -0.181 E-score.
In the case of TAATTCCA, the binding signal is reported as -0.00988 E-score.
In the case of AGGGCCCA, the binding signal is reported as -0.323 E-score.
AGCTCTCC gave a binding signal of -0.158 E-score.
TGCTAAAA was tested, and the binding signal was -0.161 E-score.
For GCAAATCC, the binding signal was -0.105 E-score.
ATTCTAGA gave a binding signal of 0.0195 E-score.
In the case of AAAGTTCG, the binding signal is reported as -0.215 E-score.
CTTACAGC was tested, and the binding signal was -0.0499 E-score.
With AGGAATTG the binding signal was 0.0141 E-score.
For AGGGACAC, the binding signal was 0.0701 E-score.
Work on AGATACAA yielded a binding signal of 0.168 E-score.
In the case of ATGTAGGA, the binding signal is reported as 0.0156 E-score.
Work on AACGCCTT yielded a binding signal of -0.314 E-score.
GAGAAAGA showed a binding signal of -0.0414 E-score.
Work on CAGACTAG yielded a binding signal of -0.117 E-score.
Sequence ATAGCATA has a binding signal of 0.218 E-score.
With ATGAGTCG the binding signal was -0.108 E-score.
With AGTAGGTC the binding signal was -0.0888 E-score.
In the case of GCCACTTA, the binding signal is reported as -0.0268 E-score.
CGACAGAG gave a binding signal of -0.171 E-score.
TCGGCTCA was tested, and the binding signal was 0.0122 E-score.
For CTCTCCCC, the binding signal was 0.164 E-score.
CCCCGTGC gave a binding signal of 0.0193 E-score.
Work on CCGTAGAG yielded a binding signal of -0.138 E-score.
For TCCTCTAA, the binding signal was 0.0708 E-score.
For CACGCCTG, the binding signal was -2.5e-05 E-score.
With AATCTCAT the binding signal was 0.121 E-score.
With GACTACCA the binding signal was -0.0567 E-score.
CTGGGTCC gave a binding signal of -0.127 E-score.
With GAAATTAC the binding signal was -0.312 E-score.
AAACTTCA showed a binding signal of -0.266 E-score.
Sequence TCCCGGGA has a binding signal of -0.0934 E-score.
In the case of CGTAAACG, the binding signal is reported as -0.232 E-score.
In the case of CAGGATAA, the binding signal is reported as 0.237 E-score.
In the case of CCGGAGCC, the binding signal is reported as -0.0815 E-score.
Sequence CTTGCAGA has a binding signal of 0.0249 E-score.
Sequence CCCCTGGC has a binding signal of 0.16 E-score.
Work on ATAGGTCA yielded a binding signal of 0.0622 E-score.
ACTTTCTG showed a binding signal of -0.272 E-score.
Sequence ACCTCGTA has a binding signal of 0.0611 E-score.
Work on AGGTCTAT yielded a binding signal of 0.0598 E-score.
AGTAAATG showed a binding signal of -0.0757 E-score.
With AAGGTCGC the binding signal was -0.321 E-score.
GGCAACCA showed a binding signal of -0.124 E-score.
GGAAGTTA showed a binding signal of -0.133 E-score.
AAGATACG was tested, and the binding signal was 0.322 E-score.
In the case of CGTCGGTA, the binding signal is reported as -0.0562 E-score.
TAGAGCAA was tested, and the binding signal was -0.307 E-score.
AGAATTTC was tested, and the binding signal was -0.213 E-score.
GAAGGGGC gave a binding signal of -0.108 E-score.
GTTTATGA was tested, and the binding signal was 0.0419 E-score.
AAAACTTT gave a binding signal of -0.263 E-score.
Sequence AGATCCAA has a binding signal of 0.204 E-score.
ATCGGCTC gave a binding signal of 0.269 E-score.
In the case of GGGCAATA, the binding signal is reported as 0.123 E-score.
In the case of CGGGCAAA, the binding signal is reported as -0.196 E-score.
Sequence CGATGTGC has a binding signal of -0.143 E-score.
Sequence CCGCAGCC has a binding signal of -0.0973 E-score.
Sequence ATTGAACA has a binding signal of -0.0746 E-score.
ATACAAAT gave a binding signal of 0.0939 E-score.
In the case of AAGGTGAG, the binding signal is reported as 0.0174 E-score.
For AACTTATT, the binding signal was -0.126 E-score.
AATTCCGA was tested, and the binding signal was -0.052 E-score.
Sequence CCCAGTGA has a binding signal of -0.0871 E-score.
For AACTCGGT, the binding signal was -0.0571 E-score.
CAGGCTAG gave a binding signal of -0.0928 E-score.
GCTTGGGA was tested, and the binding signal was -0.0273 E-score.
For GGCAAAAA, the binding signal was -0.313 E-score.
Sequence CTGGTGTC has a binding signal of 0.414 E-score.
CACTCCAA was tested, and the binding signal was -0.197 E-score.
TAGCCGCA showed a binding signal of 0.0127 E-score.
TGTCTGAA was tested, and the binding signal was -0.0176 E-score.
CCTACTTC showed a binding signal of -0.118 E-score.
With CTAGCACA the binding signal was -0.267 E-score.
With GGTGCGGA the binding signal was 0.000785 E-score.
Sequence AGTGACTC has a binding signal of -0.0801 E-score.
In the case of CAATCTGG, the binding signal is reported as 0.109 E-score.
Work on CGGCCGAA yielded a binding signal of -0.0831 E-score.
TCACTAGA was tested, and the binding signal was 0.0992 E-score.
ACTAGGGG gave a binding signal of 0.121 E-score.
Sequence GAAAGAAC has a binding signal of -0.129 E-score.
ATCTAAAT showed a binding signal of 0.15 E-score.
GCCATTTA gave a binding signal of -0.169 E-score.
Sequence CTACGACC has a binding signal of -0.287 E-score.
ACATGTAC was tested, and the binding signal was -0.0938 E-score.
ACGGCAAT gave a binding signal of -0.135 E-score.
With ATGTTCTG the binding signal was 0.00549 E-score.
Sequence CGTGGCTC has a binding signal of -0.0195 E-score.
ATGTTTCC showed a binding signal of -0.131 E-score.
For ACACACCG, the binding signal was 0.0905 E-score.
ACAACCCG was tested, and the binding signal was -0.0244 E-score.
AAGTAAAG gave a binding signal of -0.265 E-score.
With GTTAGCTA the binding signal was -0.165 E-score.
In the case of AATTAGAC, the binding signal is reported as -0.00985 E-score.
In the case of CATGTTCA, the binding signal is reported as -0.159 E-score.
GAAACTAA showed a binding signal of -0.171 E-score.
For ATGCGTAG, the binding signal was 0.0042 E-score.
AATTGAAA gave a binding signal of -0.201 E-score.
In the case of GACGCTAC, the binding signal is reported as -0.232 E-score.
In the case of AGCAGCCG, the binding signal is reported as -0.131 E-score.
In the case of AGCCAACC, the binding signal is reported as -0.101 E-score.
AACGTCGT was tested, and the binding signal was -0.21 E-score.
CACCCGAC showed a binding signal of 0.00436 E-score.
For CCCTTGGA, the binding signal was 0.213 E-score.
Sequence AATTTTGT has a binding signal of -0.243 E-score.
With GTACCTAA the binding signal was -0.0837 E-score.
ACTTCGCA showed a binding signal of -0.359 E-score.
For AGTCATTC, the binding signal was -0.236 E-score.
AGTTATGA was tested, and the binding signal was 0.0121 E-score.
